# Measurements as given in PubChem BioAssay AID485294 (National Center for Advancing Translational Sciences (NCATS), 2010).
# “And” between values parts separate entries of the source, which are not always exact repeats. Equal entries are not always repeated. Screen size: about 370,000 compounds; about 150 (0.041%) were called active. The inconclusive results got no clear call from the source; some entries with a clear call stand among them for comparison. The call rests on the fitted dose curve; in most records, active means well fitted inhibition curve with a large enough effect; inconclusive means small, poorly fitted or top-dose-only effect; inactive means flat fitted curve, though single readings scatter. A potency beside an inconclusive call is a rough fit, not a confirmed value.
# Target: Beta-lactamase (Escherichia coli (strain K12)) (UniProt P00811)
# Sequence of UniProt P00811 (P00811 whole entry, looked up): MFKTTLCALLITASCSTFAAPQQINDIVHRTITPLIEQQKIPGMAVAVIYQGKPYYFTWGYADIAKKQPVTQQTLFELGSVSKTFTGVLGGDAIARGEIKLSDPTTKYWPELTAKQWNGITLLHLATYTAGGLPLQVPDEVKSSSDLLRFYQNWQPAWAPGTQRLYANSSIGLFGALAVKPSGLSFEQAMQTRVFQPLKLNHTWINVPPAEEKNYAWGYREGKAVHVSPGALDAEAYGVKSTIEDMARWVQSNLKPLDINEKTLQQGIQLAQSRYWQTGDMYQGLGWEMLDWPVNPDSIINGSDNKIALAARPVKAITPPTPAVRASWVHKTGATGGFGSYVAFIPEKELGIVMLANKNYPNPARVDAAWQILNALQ
# Assay: qHTS Inhibitors of AmpC Beta-Lactamase (assay with detergent); further: nearly all actives have a fitted effect of over 25% in size;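 on activity change, negative = inhibition: 0% = no-compound wells and -100% = no-enzyme wells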
# Settings: AmpC hydrolysis of nitrocefin, absorbance 480 nm, 0.01% Triton; activity change, negative = inhibition: at 114 µM (top of the series)
# Summary of the method: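 AmpC (5.3 nM in the dispensed reagent) in 20 mM phosphate pH 7.0 with 0.01% (detergent screen) or 0.0001% Triton X-100 was preincubated with compounds for 15 min at room temperature. Nitrocefin was then added from an 800 uM solution, and hydrolysis was followed at 480 nm.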
# Potency means the concentration at half of the fitted maximal effect; tags describe the fitted curve by direction and shape.
Compound,Potency,"activity change, negative = inhibition"
C/C(=N\Nc1ccccc1)c1c(O)n(Cc2ccccc2)c(=O)[nH]c1=O,inactive,–
Cc1ccc(NC(=O)N2CCCC2C(=O)NCCC2=CCCCC2)cc1 (stereo not given),"inconclusive: 112 µM [inhibitor, partial curve, poor fit]",–
O=C(Nc1nnc(-c2ccco2)s1)C1CC1,"inconclusive: 39.8 µM [inhibitor, partial curve, poor fit]",–
CN1C2CCC1CC(NC(=O)c1ccc(Cl)cc1)C2 (stereo not given),"inconclusive: 8.91 µM [inhibitor, partial curve, poor fit]",–
O=C(CN(C(=O)c1csnn1)c1ccc(Br)cc1)NC1CCCC1,"inconclusive: 1.58 µM [inhibitor, full curve, poor fit]",–
Nc1nnnn1/N=C/c1ccccc1OCc1ccccc1,"inconclusive: 44.7 µM [inhibitor, partial curve]",–
O=c1c2c3c(sc2nnn1Cc1ccc(Br)cc1)CCCC3,inactive,–
Cc1cc(C)c(C#N)c(Nc2cccc(C)c2C)n1,inactive,–
COc1ccccc1N1CCN(C(CNC(=O)C2CCCCC2)c2cccnc2)CC1 (stereo not given),"inconclusive: 0.708 µM [inhibitor, full curve, poor fit]",–
Cc1ncc(CO)c(/C=N/NC(=O)c2cccc(S(=O)(=O)N3CCCC3)c2)c1O,"inconclusive: 5.01 µM [inhibitor, full curve, poor fit]",–
CCc1cc2c(=O)c(Oc3ccccc3)c(C)oc2cc1O,"inconclusive: 50.1 µM [inhibitor, partial curve, poor fit]",–
CCCCCCn1c(O)c(C=Nc2c(C)n(C)n(-c3ccccc3)c2=O)c(=O)[nH]c1=O,"inconclusive: 1.58 µM [inhibitor, full curve]",–
Cc1cccc(NC(=O)CCN2CC(C)OC(C)C2)c1 (stereo not given),"inconclusive: 100 µM [inhibitor, partial curve, poor fit]",–
COc1ccnc(Oc2ccc(F)cc2)c1C(=O)N/C=N/OCc1ccccc1,"inconclusive: 1.58 µM [inhibitor, full curve]",–
NC(=O)C1CCN(Cc2nnnn2Cc2ccco2)CC1,"inconclusive: 0.631 µM [inhibitor, full curve, poor fit]",–
COC(=O)c1cccc(NCN2C(=O)c3ccccc3C2=O)c1,"inconclusive: 44.7 µM [inhibitor, partial curve]",–
CCc1ncc(CN2CCC(C(=O)Nc3cccc(-c4cscn4)c3)CC2)cn1,"inconclusive: 1 µM [inhibitor, full curve, poor fit]",–
CCCCC(CC)C1OCC(C[N+]2(C)CCOCC2)O1 (stereo not given),"inconclusive: 50.1 µM [inhibitor, partial curve]",–
COc1ccccc1NS(=O)(=O)c1ccc(C)c(C(=O)NCC2CCCO2)c1 (stereo not given),"inconclusive: 1.78 µM [inhibitor, full curve]",–
CSc1nc(-c2ccccc2)nn1C(=O)c1ccccc1,"inconclusive: 112 µM [inhibitor, partial curve, poor fit]",–
Cc1ccc(Cl)cc1NC(=O)NCc1cccnc1,"inconclusive: 0.794 µM [inhibitor, full curve]",–
CCCCCn1c(=NC(=O)c2ccco2)c(C(=O)OCC)cc2c(=O)n3ccccc3nc21,"inconclusive: 28.2 µM [inhibitor, full curve, poor fit]",–

Compound,Potency,"activity change, negative = inhibition"
COc1cc(/C=N/NC(=O)C2COc3ccccc3O2)cc(OC)c1OC (stereo not given),"inconclusive: 0.316 µM [inhibitor, full curve]",–
O=C1c2ccccc2C(=O)N1c1ccc(S(=O)(=O)N2CCCCC2)cc1,"inconclusive: 0.631 µM [inhibitor, full curve, poor fit]",–
CCCNc1nc2c(c(=O)n(C)c(=O)n2C)n1Cc1cccc(C)c1,"inconclusive: 0.562 µM [inhibitor, full curve, poor fit]",–
Cc1ccc(Nc2nnc(SCC(=O)c3ccc(O)cc3O)s2)cc1,inactive,–
COC(=O)c1ccccc1COn1c(=O)c(C)[n+]([O-])c2ccccc21,"inconclusive: 0.631 µM [inhibitor, full curve, poor fit]",–
CN(C)c1ccc(/C=N/N=C(N)N)cc1[N+](=O)[O-],"inconclusive: 89.1 µM [inhibitor, single point]",–
Cc1ccc(C)c(S(=O)(=O)Nc2ccc(O)c(C(=O)O)c2)c1,inactive,–
CCOc1ccc2[nH]cc(C(=O)NCc3ccc(F)cc3)c(=O)c2c1,"inconclusive: 100 µM [inhibitor, partial curve, poor fit]",–
Cc1nn(CC(=O)NCc2cccc(F)c2)c(=O)c2cccn12,inactive,–
Cc1ccc(C)c(N(C)C(=O)C2CCN(S(=O)(=O)c3cccc4nsnc34)CC2)c1,inactive,–
Cc1cc(=O)oc2c(C)c(OCC(=O)N3CCN(Cc4ccccc4)CC3)ccc12,"inconclusive: 5.01 µM [inhibitor, full curve, poor fit]",–
COc1ccccc1N(C)S(=O)(=O)c1ccc(C(=O)N(C)Cc2ccc(OC(F)F)cc2)cc1,inactive,–
CC(NC(=O)COc1ccccc1)C(=O)N1CCN(c2ccccc2)CC1 (stereo not given),inactive,–
CCC(=O)Nc1cccc(NC(=S)NC(=O)c2cccs2)c1,inactive,–
COCCn1c(C)cc(C(=O)COc2ncnc3ccc(Br)cc23)c1C,"inconclusive: 0.708 µM [inhibitor, full curve]",–
CCOC(=O)C1CCN(C(=O)CCNC(=O)Cn2cnc3ccccc3c2=O)CC1,"inconclusive: 3.16 µM [inhibitor, full curve, poor fit]",–
CCCC(=O)Nc1ccc(C(=O)COC(=O)c2cc(C)oc2C)cc1,inactive,–
COC(=O)c1c(NC(=O)Cc2cccs2)sc(C)c1C,"inconclusive: 1.41 µM [inhibitor, full curve]",–
Cc1cc2oc(C(=O)N(Cc3ccccc3)c3ccccn3)cc(=O)c2cc1Cl,"inconclusive: 39.8 µM [inhibitor, partial curve]",–
CCCCN(C(=O)C(CCSC)N1C(=O)c2ccccc2C1=O)c1c(N)n(CCC)c(=O)[nH]c1=O (stereo not given),"inconclusive: 0.708 µM [inhibitor, full curve, poor fit]",–
CS(=O)(=O)N1CCc2cc(S(=O)(=O)N3CCN(Cc4ccc5c(c4)OCO5)CC3)ccc21,–,inconclusive: -16% [inhibitor]
CCOc1ccc(C(CC(=O)O)NC(=O)c2ccco2)cc1 (stereo not given),"inconclusive: 5.01 µM [inhibitor, full curve, poor fit]",–

Compound,Potency,"activity change, negative = inhibition"
CCOc1cc(C(=O)OC(C)C(=O)Nc2ccc(S(N)(=O)=O)cc2)ccc1OCC(=O)N1CCOCC1 (stereo not given),"inconclusive: 28.2 µM [inhibitor, partial curve, poor fit]",–
COc1ccc(-c2nc(NC(=O)c3ccc(OCC(=O)N4CCOCC4)c(OC)c3)sc2C)cc1,–,inconclusive: -20% [inhibitor]
CCOC(=O)c1c(C2CC2)csc1NC(=O)COC(=O)c1ccc[n+]([O-])c1,"inconclusive: 35.5 µM [inhibitor, partial curve]",–
CCOC(=O)c1sc2nc(NC(=O)C3CCCCC3)sc2c1C,"inconclusive: 100 µM [inhibitor, partial curve, poor fit]",–
O=C(N(c1ccccc1)c1ccccc1)n1ccnc1,"inconclusive: 100 µM [inhibitor, single point]",–
CCSc1ccccc1C(=O)N1CCN(c2ccccc2F)CC1,inactive,–
CCC(=O)N(Cc1ccco1)c1nc(-c2cc(OC)ccc2OC)cs1,"inconclusive: 11.2 µM [inhibitor, partial curve]",–
Cc1ccc(-n2c([S-])c(C(=O)NC(C)c3ccccc3)[n+]3ccccc23)cc1 (stereo not given),inactive,–
COc1ccc(N2C(=O)CC(N3CCN(S(=O)(=O)c4ccc(Cl)cc4)CC3)C2=O)cc1 (stereo not given),"inconclusive: 100 µM [inhibitor, partial curve, poor fit]",–
O=C(NCc1cccnc1)c1nnc(Cc2ccc(F)cc2)o1,"inconclusive: 89.1 µM [inhibitor, partial curve]",–
COc1cccc(CNC(=O)C(=O)NCCC2CCCCN2S(=O)(=O)c2ccccc2)c1 (stereo not given),"inconclusive: 39.8 µM [inhibitor, full curve, poor fit]",–
O=C(CN1CCN(S(=O)(=O)c2ccc(Cl)cc2)CC1)c1ccc(O)c(O)c1,inactive,–
Nc1c2c(nc3ccccc13)CCCC2,"inconclusive: 14.1 µM [inhibitor, partial curve] and inconclusive: 2.82 µM [inhibitor, full curve, poor fit]",–
Cc1ccc2c(CC(=O)NCC3COc4ccccc4O3)coc2c1 (stereo not given),"inconclusive: 5.01 µM [inhibitor, full curve]",–
COc1cccc(OCc2cc(C(=O)N3CCC(c4ccncc4)CC3)no2)c1,"inconclusive: 4.47 µM [inhibitor, full curve]",–
CCOC(=O)c1sc(NC(=O)CCN2CCN(CC)CC2)c(C(=O)OCC)c1C,inactive,–
O=C(NC1CCCC1)c1c(O)nc2sccn2c1=O,"inconclusive: 100 µM [inhibitor, partial curve, poor fit]",–
O=C(NCc1cccnc1)C(=O)Nc1ccc([N+](=O)[O-])cc1,"inconclusive: 25.1 µM [inhibitor, single point]",–
CN1CCN(CC(=O)N2c3ccccc3C(C)(c3ccccc3)CC2(C)C)CC1 (stereo not given),"inconclusive: 200 µM [inhibitor, partial curve, poor fit]",–
CN1C(=O)CC(N2CCN(C(=O)c3ccccc3)CC2)C1=O (stereo not given),"inconclusive: 0.562 µM [inhibitor, full curve, poor fit]",–
C/C(=N\NC(=O)c1cccc(S(=O)(=O)N2CCCC2)c1)c1ccccc1F,"inconclusive: 100 µM [inhibitor, single point]",–
